Assay results from US20260034119A1, “5-METHOXY-N,N-[…][…], THEIR […], AND METHODS FOR TREATMENT OF NEUROLOGICAL, […], AND SUBSTANCE USE DISORDERS” (priority 2023, published 2026).

Target: 5-HT1A F361L (Homo sapiens, UniProt P08908, F361L)
Sequence (P08908 whole entry F361L): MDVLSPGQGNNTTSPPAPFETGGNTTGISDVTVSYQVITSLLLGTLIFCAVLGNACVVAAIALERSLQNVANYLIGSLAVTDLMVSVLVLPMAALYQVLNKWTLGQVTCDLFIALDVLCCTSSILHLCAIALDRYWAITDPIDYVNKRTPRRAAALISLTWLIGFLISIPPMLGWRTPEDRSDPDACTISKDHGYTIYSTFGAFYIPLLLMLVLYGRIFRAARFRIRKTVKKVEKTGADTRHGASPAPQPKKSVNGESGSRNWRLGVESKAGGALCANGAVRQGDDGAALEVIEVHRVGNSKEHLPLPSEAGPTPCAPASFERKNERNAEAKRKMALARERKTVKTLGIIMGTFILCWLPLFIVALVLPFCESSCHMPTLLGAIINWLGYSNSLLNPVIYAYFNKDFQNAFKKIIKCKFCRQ

Row | Compound | EC50 (cAMP, 5-HT1A F361L^6.51) | pEC50 (cAMP, 5-HT1A F361L^6.51) | Fold-Change (F361L EC50/WT EC50) (cAMP, 5-HT1A F361L^6.51 vs 5-HT1A WT) | 5-HT1A potency loss by F361 mutation (mutant vs wildtype 5-HT1A)
1 | COc1ccc2[nH]cc(CCN3CCCC3)c2c1F [4-F, 5-MeO-PyrT, 4-Fluoro, 5-methoxypyrrolidinyl-tryptamine] | 0.84 nM | 9.08 | 29 | –
2 | COc1ccc2[nH]cc(CCN(C)C)c2c1 [Compound 5-MeO-DMT, 5-methoxy-N,N-dimethyltryptamine, reference compound] | – | – | – | greater 5-HT1A potency loss than 4-F, 5-MeO-PyrT
